{
  "source": "paper PMC3419730",
  "about": "“NRFL-1, the C. elegans NHERF Orthologue, Interacts with Amino Acid Transporter 6 (AAT-6) for Age-Dependent Maintenance of AAT-6 on the Membrane” (PLoS ONE, 2012)",
  "binders": {"B1": {"name": "NRFL-1 (C01F6.6a), full-length, two-hybrid prey (protein, UniProt G5EDM4 1-467)", "chain": "MVHIPSDVTPPRLCVVEKLNGENEYGYNLHAEKGRGQFVGTVDPDSPAERGGLITGDRIFAVNGHSIIGENHKKVVERIKANPNRCEMLVISEEGAKWYNENNVQITLDLPNIERVSPMSKETPVFVPPPPPPTDAMPYLPRLAELNKGTPDQEFGFNLHAERGRGHFIGTVDAGGIGEKAGLEAGQRIVGVNGQLIYPTTGHKEVVALIKKDTMKTTLLVASEDVDKYHKDHNIAYSWDNVERVDTRPVINVETHHHHEEVSVPKSNGYDVPPLNPHSIQVNEEREISKMTTTTRTETITNSNSAYQYKESSTAYDAYATPPVDSNDLMDEVFGRVNLPGVTMSSHTEVLPPTDDISSVSSLSSHRESAVDVPVSHQYVPSYATESHQKHEQHSQTHHHHHQHQQPSPLSNGSSHGYAASSTSGYDDDDIYHLSAREARERLRMKNRKHHLHEMSLNEKYQLVSNM"}, "B2": {"name": "endogenous NRFL-1 of C. elegans (protein, UniProt G5EDM4 1-467)", "chain": "MVHIPSDVTPPRLCVVEKLNGENEYGYNLHAEKGRGQFVGTVDPDSPAERGGLITGDRIFAVNGHSIIGENHKKVVERIKANPNRCEMLVISEEGAKWYNENNVQITLDLPNIERVSPMSKETPVFVPPPPPPTDAMPYLPRLAELNKGTPDQEFGFNLHAERGRGHFIGTVDAGGIGEKAGLEAGQRIVGVNGQLIYPTTGHKEVVALIKKDTMKTTLLVASEDVDKYHKDHNIAYSWDNVERVDTRPVINVETHHHHEEVSVPKSNGYDVPPLNPHSIQVNEEREISKMTTTTRTETITNSNSAYQYKESSTAYDAYATPPVDSNDLMDEVFGRVNLPGVTMSSHTEVLPPTDDISSVSSLSSHRESAVDVPVSHQYVPSYATESHQKHEQHSQTHHHHHQHQQPSPLSNGSSHGYAASSTSGYDDDDIYHLSAREARERLRMKNRKHHLHEMSLNEKYQLVSNM", "modifications": "phosphorylated in vivo (sites not given)"}, "B3": {"name": "T26E3.3a (par-6), full-length, two-hybrid construct (protein, UniProt Q9NAN2 1-309)", "chain": "MSYNGSYHQNHHSTLQVKSKFDSEWRRFSIPMHSASGVSYDGFRSLVEKLHHLESVQFTLCYNSTGGDLLPITNDDNLRKSFESARPLLRLLIQRRGESWEEKYGYGTDSDKRWKGISSLMAQKPPKRSYSISNPEDFRQVSAIIDVDIVPEAHRRVRLCKHGQERPLGFYIRDGTSVRVTERGVVKVSGIFISRLVDGGLAESTGLLGVNDEVLEVNGIEVLGKTLDQVTDMMVANAHNLIITVKPANQRNTLSRGPSQQGTPNASEMSAATAAATGGIQRPMKMNGSSDGSYHPKQHDANDSDSGED"}, "B4": {"name": "3×FLAG-NRFL-1 (wild type) (protein, UniProt G5EDM4 1-467)", "chain": "MVHIPSDVTPPRLCVVEKLNGENEYGYNLHAEKGRGQFVGTVDPDSPAERGGLITGDRIFAVNGHSIIGENHKKVVERIKANPNRCEMLVISEEGAKWYNENNVQITLDLPNIERVSPMSKETPVFVPPPPPPTDAMPYLPRLAELNKGTPDQEFGFNLHAERGRGHFIGTVDAGGIGEKAGLEAGQRIVGVNGQLIYPTTGHKEVVALIKKDTMKTTLLVASEDVDKYHKDHNIAYSWDNVERVDTRPVINVETHHHHEEVSVPKSNGYDVPPLNPHSIQVNEEREISKMTTTTRTETITNSNSAYQYKESSTAYDAYATPPVDSNDLMDEVFGRVNLPGVTMSSHTEVLPPTDDISSVSSLSSHRESAVDVPVSHQYVPSYATESHQKHEQHSQTHHHHHQHQQPSPLSNGSSHGYAASSTSGYDDDDIYHLSAREARERLRMKNRKHHLHEMSLNEKYQLVSNM"}, "B5": {"name": "3×FLAG-NRFL-1 with PDZ I/PDZ II both mutated (G26A/Y27A and E154A/F155A) (protein, UniProt G5EDM4 1-467)", "chain": "MVHIPSDVTPPRLCVVEKLNGENEYAANLHAEKGRGQFVGTVDPDSPAERGGLITGDRIFAVNGHSIIGENHKKVVERIKANPNRCEMLVISEEGAKWYNENNVQITLDLPNIERVSPMSKETPVFVPPPPPPTDAMPYLPRLAELNKGTPDQAAGFNLHAERGRGHFIGTVDAGGIGEKAGLEAGQRIVGVNGQLIYPTTGHKEVVALIKKDTMKTTLLVASEDVDKYHKDHNIAYSWDNVERVDTRPVINVETHHHHEEVSVPKSNGYDVPPLNPHSIQVNEEREISKMTTTTRTETITNSNSAYQYKESSTAYDAYATPPVDSNDLMDEVFGRVNLPGVTMSSHTEVLPPTDDISSVSSLSSHRESAVDVPVSHQYVPSYATESHQKHEQHSQTHHHHHQHQQPSPLSNGSSHGYAASSTSGYDDDDIYHLSAREARERLRMKNRKHHLHEMSLNEKYQLVSNM"}, "B6": {"name": "C25F6.2a (dlg-1), full-length, two-hybrid prey (protein, UniProt G5ECY0 1-967)", "chain": "MSHESSEKAHKAIENVEDYCQTLTRHGNEELRTNLERVITTFKSNLMHSLLDIHDLYEQTLLSERKSDAEKNMEVRRVIERLEGGPHSYNSRPAATTSTSNYNLSSTTPLISDLRDRGGFSYLNGGGLGNGLGNGLGNGLLSSPYNSSSTHYLHERQRQTSHDGTWRETTTRTVDTPSGLERRVVEHTGVIDDHGRKWELENIVLEKGHTGLGFSITGGMDQPTEDGDTSIYVTNIIEGGAALADGRMRKNDIITAVNNTNCENVKHEVAVNALKSSGNVVSLSLKRRKDEAFLPIGGNFGGSTSYLRSGVTPSVSAGNLQHAIHSPSAPIHPPPPPPVHHGSLSQLSVGQYRSTRPNTSVIDLVKGARGLGFSIAGGQGNEHVKGDTDIYVTKIIEEGAAELDGRLRVGDKILEVDHHSLINTTHENAVNVLKNTGNRVRLLIQQGTGAIFNDSASQQFMPTTPILRPSSVQDYNRSQMGSQSHLSYGGPLNTSYSSQAPIAIPLEPRPVQLVKGQNGLGFNIVGGEDNEPIYISFVLPGGVADLSGNVKTGDVLLEVNGVVLRNATHKEAAEALRNAGNPVYLTLQYRPQEYQIFESKIEKLRNDVIAQSRMGTLSRKSEYVRALFDYDPSRENSVAPHRSMGFNYGDILHIINSSDDEWWTARKVHENGEETAEGVIPSKKRVEKRERLRRKQVNFNSGSQSLGRNSSTTGLENRRGSRSQLSFSRKFPFVKSTDRLNDLNEESSNVAEEPVWSYQAVEQQAINYVRPVIILGALKDRINDELVNRDPSKFSSCVPHTSRPPREGEVNGRDYYFVNKHNMEEDVKNNLFIEAGQFQNNLYGTSIQSVRDVANQGRHCILDVSGNAIRRLQSNANIQPISIFIKPSSAQQILELDSQLATNRQDDRAMSGEEAQAQYSRCHRIEQTFGDLFTQEISNVHSANDVLSKVYSIISRESQTPIWVPRH"}},
  "key": {"[1]": {"target": "T1, AAT-6 C-terminus tail corresponding to residues 487–523 (two-hybrid bait) (C. elegans) (UniProt Q22397)", "T1 sequence": "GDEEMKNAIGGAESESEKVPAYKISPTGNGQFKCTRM", "assay": "two-hybrid; LexA-based GFP yeast two-hybrid (Glow'n'Grow, MoBiTec) in EGY48; AAT-6 tail in pEG202 as bait, PDZ protein as prey; reporters LEU2 (growth without leucine) and GFP"}, "[2]": {"target": "T2, AAT-6 C-terminus tail without PDZ binding motif (ΔTRM), two-hybrid bait (C. elegans) (UniProt Q22397)", "T2 sequence": "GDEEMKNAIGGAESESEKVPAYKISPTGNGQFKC", "assay": "two-hybrid; LexA-based GFP yeast two-hybrid (Glow'n'Grow, MoBiTec) in EGY48; AAT-6 tail in pEG202 as bait, PDZ protein as prey; reporters LEU2 (growth without leucine) and GFP"}, "[3]": {"target": "T3, AAT-6(1–517)-4×G::GFP::4×G-FKCTRM (C. elegans) (UniProt Q22397)", "T3 sequence": "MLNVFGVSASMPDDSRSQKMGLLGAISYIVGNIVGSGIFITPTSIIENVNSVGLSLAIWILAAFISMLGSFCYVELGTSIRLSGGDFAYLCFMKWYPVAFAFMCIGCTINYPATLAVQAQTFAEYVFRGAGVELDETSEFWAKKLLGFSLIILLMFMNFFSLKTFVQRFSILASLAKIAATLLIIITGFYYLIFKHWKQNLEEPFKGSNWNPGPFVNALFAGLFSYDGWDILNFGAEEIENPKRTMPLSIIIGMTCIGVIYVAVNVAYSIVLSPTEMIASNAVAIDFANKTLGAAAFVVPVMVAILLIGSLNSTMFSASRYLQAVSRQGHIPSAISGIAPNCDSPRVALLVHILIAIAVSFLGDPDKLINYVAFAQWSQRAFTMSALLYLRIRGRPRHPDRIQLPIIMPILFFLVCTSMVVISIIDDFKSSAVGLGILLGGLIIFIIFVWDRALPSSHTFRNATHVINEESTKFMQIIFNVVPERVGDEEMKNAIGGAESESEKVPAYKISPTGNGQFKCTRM", "assay": "co-IP; worm lysate with 0.5% Triton X-100, 100 mM NaCl and phosphatase inhibitors; anti-GFP mouse monoclonal antibody and Protein G; blot with anti-NRFL-1"}, "[4]": {"target": "T4, GST fusion of AAT-6 C-terminus tail without PDZ binding motif (C. elegans) (UniProt Q22397)", "T4 sequence": "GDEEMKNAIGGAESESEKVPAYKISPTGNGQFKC", "assay": "condition: 5 µg NRFL-1 protein with 2 µg GST fusion protein; pull-down; GST pull-down: 2 µg GST fusion protein and 5 µg recombinant 3×FLAG-NRFL-1, overnight at 4°C in 50 mM Tris pH 7.4, 150 mM NaCl, 5 mM EDTA, 0.1% NP-40; blot with anti-FLAG; both purified"}, "[5]": {"target": "T5, GST fusion of AAT-6 C-terminus tail corresponding to residues 487–523 (C. elegans) (UniProt Q22397)", "T5 sequence": "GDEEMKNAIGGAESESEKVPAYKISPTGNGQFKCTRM", "assay": "condition: 5 µg NRFL-1 protein with 2 µg GST fusion protein; pull-down; GST pull-down: 2 µg GST fusion protein and 5 µg recombinant 3×FLAG-NRFL-1, overnight at 4°C in 50 mM Tris pH 7.4, 150 mM NaCl, 5 mM EDTA, 0.1% NP-40; blot with anti-FLAG; both purified"}},
  "note": "Results are given in words; binding and its absence hold for the method and conditions named. For some of these results: In cells and extracts the contact can be indirect. Some results given as binding are weak or reduced against the parent protein; the word gives no strength. For some of these results: Where a sequence is shown, tags or fusion partners need not be part of it.",
  "data": [
    {"binder": "B1", "values": [
      {"measurement": "binding", "setting": "[1]", "result": "binds"},
      {"measurement": "binding", "setting": "[2]", "result": "no binding"}
    ]},
    {"binder": "B2", "values": [
      {"measurement": "binding", "setting": "[3]", "result": "binds"}
    ]},
    {"binder": "B3", "values": [
      {"measurement": "binding", "setting": "[1]", "result": "no binding"}
    ]},
    {"binder": "B4", "values": [
      {"measurement": "binding", "setting": "[4]", "result": "no binding"}
    ]},
    {"binder": "B5", "values": [
      {"measurement": "binding", "setting": "[5]", "result": "no binding"}
    ]},
    {"binder": "B6", "values": [
      {"measurement": "binding", "setting": "[1]", "result": "no binding"}
    ]}
  ]
}
